Experimental findings from patent US11459397B2, “Self-crosslinking antibodies” (Meditope Biosciences, Inc., priority 2016, dated 2022) are described below.

Data set [1] concerns HL-60 cells expressing CD33. As to the kind of experiment: pHrodo-labeled antibody internalization, confocal fluorescence microscopy. It counts as cell-based. The conditions noted are these: 15 minutes at 37° C., HL-60 cells expressing CD33, confocal microscope.
Data set [2] is described as follows: antibody self-crosslinking by size-exclusion chromatography. It counts as physicochemical. The conditions noted are these: histidine 20 mM pH6, sucrose 5%. (SEC sorts molecules by how far they enter the pores of the column.)
Data set [3] in a line: modulation of self-crosslinking by free meditope, silver-stained native gel. It counts as physicochemical. Particulars: 100 nM antibody; for multimer formation in native gel with excess of free meditope: 1 μM cQFD free meditope, 30 minutes.
Data set [4] deals with HL-60 cells expressing CD33. As to the kind of experiment: pHrodo-labeled antibody internalization, flow cytometric analysis. It counts as cell-based. The conditions noted are these: 15 minutes at 37° C. Background: A flow cytometer gives signals particle by particle.
Data set [5] is described as follows: concentration dependence of self-crosslinking, silver-stained native gel. The data set is classed as physicochemical. Particulars: 1 nM and 100 nM samples in PBS.
Data set [6] addresses sHER2 (Homo sapiens, UniProt P04626). Put plainly: size exclusion chromatography co-elution of meditope-enabled trastuzumab, sHER2 and meditope-Fc. It counts as binding. The conditions noted are these: meditope-enabled trastuzumab.
Data set [7] has as its system stoichiometric complex of EGFRdIII and cetuximab Fab. Put plainly: size exclusion chromatography of meditope-Fc with cetuximab Fab and EGFRdIII. It counts as binding.

B1: SnAP-body variant 1: meditope-enabled gemtuzumab light chain (SEQ ID NO: 254); IgG1 heavy chain fused to a meditope via a linker (SEQ ID NO: 255) (antibody)
heavy: CQFDLSTRRLKCGGGAREEAAKAAEEAKKAAEEAAKAAQVQLQQSGAELAKPGASVKMSCKASGYTFTSYRMHWVKQSPGQGLEWIGYINPSTGYTEYNQKFKDKATLTADKSSSTAYMQLSSLTFEDSAIYYCARGGGVFDYWGQGTTLTVSS[sequence of human IgG1 constant region omitted]
light: QIVLTQSPAIMSASPGEKVTITCSASSSISYMHWFQQRTNGSPRLWIYTTSNLASGVPARFSGSGSGTSYSLTISRMEAEDEADYYCHQRSTYPLTFGAGTKLELKRTVAAPSVFIFPPSDEQLKSGTASVVCLLNNFYPREAKVQWKVDNALQSGNSQESVTEQDSKDSTYSLSSTLTLSKADYEKHKVYACEVTHQGLSSPVTKSFNRGEC
modifications: Anti-CD33 SnAP-body variant 1 heavy chain; Anti-CD33 Light Chain
For B1, the “total staining (fluorescence per cell) normalized to the control” value in data set [1] is “more than 2.5 times”. In addition, the “oligomeric state by size-exclusion chromatography” value (“oligomeric state” for short) in data set [2] is “form dimers and multimers”. Also, in data set [3], the “multimer formation in native gel in the absence of free meditope” value was “form dimers, trimers, and tetramers”; the “multimer formation in native gel with excess of free meditope” value is listed as “little to no detectable multimers”. In data set [4], the “flow cytometry histogram of pHrodo fluorescence compared to the control” value is listed as “additional peaks with increased intensity as compared to the control”.

B2: gemtuzumab control antibody: meditope-enabled gemtuzumab IgG1 heavy chain (SEQ ID NO: 257) without a meditope or a linker; light chain SEQ ID NO: 254 (antibody)
heavy: QVQLQQSGAELAKPGASVKMSCKASGYTFTSYRMHWVKQSPGQGLEWIGYINPSTGYTEYNQKFKDKATLTADKSSSTAYMQLSSLTFEDSAIYYCARGGGVFDYWGQGTTLTVSS[sequence of human IgG1 constant region omitted]
light: QIVLTQSPAIMSASPGEKVTITCSASSSISYMHWFQQRTNGSPRLWIYTTSNLASGVPARFSGSGSGTSYSLTISRMEAEDEADYYCHQRSTYPLTFGAGTKLELKRTVAAPSVFIFPPSDEQLKSGTASVVCLLNNFYPREAKVQWKVDNALQSGNSQESVTEQDSKDSTYSLSSTLTLSKADYEKHKVYACEVTHQGLSSPVTKSFNRGEC
modifications: Control anti-CD33 heavy chain; Anti-CD33 Light Chain
As for B2, the “multimer formation in native gel” value in data set [5] was “only formed monomers, and did not self-crosslink”. The “oligomeric state” value in data set [2] is recorded as “eluted as a single monomeric peak”.

B3: SnAP-body variant 3: meditope-enabled gemtuzumab light chain (SEQ ID NO: 254); IgG1 heavy chain fused to a meditope via a linker (SEQ ID NO: 279) (antibody)
heavy: CQFDLSTRRLKCGGGSKDEIDSAVKQVQLQQSGAELAKPGASVKMSCKASGYTFTSYRMHWVKQSPGQGLEWIGYINPSTGYTEYNQKFKDKATLTADKSSSTAYMQLSSLTFEDSAIYYCARGGGVFDYWGQGTTLTVSS[sequence of human IgG1 constant region omitted]
light: QIVLTQSPAIMSASPGEKVTITCSASSSISYMHWFQQRTNGSPRLWIYTTSNLASGVPARFSGSGSGTSYSLTISRMEAEDEADYYCHQRSTYPLTFGAGTKLELKRTVAAPSVFIFPPSDEQLKSGTASVVCLLNNFYPREAKVQWKVDNALQSGNSQESVTEQDSKDSTYSLSSTLTLSKADYEKHKVYACEVTHQGLSSPVTKSFNRGEC
modifications: cQFD meditope, variant 3 linker, fused to the heavy chain of meditope enabled gemtuzumab; Anti-CD33 Light Chain
For the molecule B3, in data set [2], the “oligomeric state” value was “form dimers and multimers”. Besides, in data set [3], the “multimer formation in native gel in the absence of free meditope” value is “form dimers, trimers, and tetramers”; the “multimer formation in native gel with excess of free meditope” value is on record as “little to no detectable multimers”.

B4: SnAP-body variant 2: meditope-enabled gemtuzumab light chain (SEQ ID NO: 254); IgG1 heavy chain fused to a meditope via a linker (SEQ ID NO: 256) (antibody)
heavy: CQFDLSTRRLKCGGGAAARAAAARAAAARAQVQLQQSGAELAKPGASVKMSCKASGYTFTSYRMHWVKQSPGQGLEWIGYINPSTGYTEYNQKFKDKATLTADKSSSTAYMQLSSLTFEDSAIYYCARGGGVFDYWGQGTTLTVSS[sequence of human IgG1 constant region omitted]
light: QIVLTQSPAIMSASPGEKVTITCSASSSISYMHWFQQRTNGSPRLWIYTTSNLASGVPARFSGSGSGTSYSLTISRMEAEDEADYYCHQRSTYPLTFGAGTKLELKRTVAAPSVFIFPPSDEQLKSGTASVVCLLNNFYPREAKVQWKVDNALQSGNSQESVTEQDSKDSTYSLSSTLTLSKADYEKHKVYACEVTHQGLSSPVTKSFNRGEC
modifications: Anti-CD33 SnAP-body variant 2 heavy chain; Anti-CD33 Light Chain
Turning to B4, the “total staining (fluorescence per cell) normalized to the control” value in data set [1] is listed as “more than 2.0 times”. Besides, the “oligomeric state” value in data set [2] was “form dimers and multimers”. Further, in data set [3], the “multimer formation in native gel in the absence of free meditope” value was “form dimers, trimers, and tetramers”; the “multimer formation in native gel with excess of free meditope” value is “little to no detectable multimers”. Further, the “flow cytometry histogram of pHrodo fluorescence compared to the control” value in data set [4] is “additional peaks with increased intensity as compared to the control”.

B5: meditope-Fc construct: meditope fused to the N-terminus of an Fc domain via a poly-glycine-serine linker; SEQ ID NO: 57 (protein)
chain: GCQFDLSTRRLRCGGSRSGGTSGGGSVPGSGSSGSTSGSGKSSEGSGQ[sequence of human IgG1 Fc and a few adjoining residues omitted]
B5: in data set [6], the “co-elution by size exclusion chromatography” value is reported as “co-eluted”. In data set [7], the “complex formation by size exclusion chromatography (SEC)” value is on record as “form a complex”.
